Here are results for 84 variants from a collection of fitness landscapes (doi:10.1126/science.1257360).

Sequences and labels used below:
B1: PhoQ; a variant is named by its letters at X, in order, P23837 (parent)
chain: MKKLLRLFFPLSLRVRFLLATAAVVLVLSLAYGMVALIGYSVSFDKTTFRLLRGESNLFYTLAKWENNKLHVELPENIDKQSPTMTLIYDENGQLLWAQRDVPWLMKMIQPDWLKSNGFHEIEADVNDTSLLLSGDHSIQQQLQEVREDDDDAEMTHSVAVNVYPATSRMPKLTIVVVDTIPVELKSSYMVWSWFIYVLSANLLLVIPLLWVAAWWSLRPIEALAKEVRELEEHNRELLNPATTRELTSLVRNLNRLLKSERERYDKYRTTLTDLTHSLKTPLXXLQXXLRSLRSEKMSVSDAEPVMLEQISRISQQIGYYLHRASMRGGTLLSRELHPVAPLLDNLTSALNKVYQRKGVNISLDISPEISFVGEQNDFVEVMGNVLDNACKYCLEFVEISARQTDEHLYIVVEDDGPGIPLSKREVIFDRGQRVDTLRPGQGVGLAVAREITEQYEGKIVAGESMLGGARMEVIFGRQHSAPKDE

Some of the results follow.

Variants of B1 are the subject of this experiment. The experiment in a line: enrichment ratio after two sorts for PhoP signalling (ratio (wild type AVST 3.29)); higher = more functional. The conditions noted are these: with PhoP (E. coli).
Turning to YQDV, the enrichment ratio was at most 0.25.

Regarding SETM, the enrichment ratio was 18.3.

On to ESDT, for which the enrichment ratio is at most 0.25.

WSQR: the enrichment ratio was at most 0.25.

RCFF: the enrichment ratio is at most 0.25.

Consider RPSP, for which the enrichment ratio was at most 0.25.

Turning to FSCD, the enrichment ratio was at most 0.25.

Consider LHKA, for which the enrichment ratio is at most 0.25.

For LPLI, the enrichment ratio is at most 0.25.

Regarding YMPA, the enrichment ratio was at most 0.25.

As to WESQ, the enrichment ratio was at most 0.25.

As to RWRI, the enrichment ratio was at most 0.25.

Regarding LNCE, the enrichment ratio was at most 0.25.

EAIR: the enrichment ratio was 3.23.

In the case of RIPY, the enrichment ratio is at most 0.25.

As to YKIN, the enrichment ratio is at most 0.25.

With FRLF, the enrichment ratio was at most 0.25.

KESD: the enrichment ratio is at most 0.25.

For HTVW, the enrichment ratio was at most 0.25.

MGVI: the enrichment ratio was at most 0.25.

As to REKS, the enrichment ratio is at most 0.25.

Take FMTI: the enrichment ratio is at most 0.25.

As to AIEQ, the enrichment ratio is at most 0.25.

For the variant QEIQ, the enrichment ratio was at most 0.25.

Regarding FTFW, the enrichment ratio was at most 0.25.

Regarding WVII, the enrichment ratio was at most 0.25.

As for STWQ, the enrichment ratio was determined as 0.54.

For FLSN, the enrichment ratio is at most 0.25.

As for ECMN, the enrichment ratio was at most 0.25.

ASAC: the enrichment ratio amounted to 6.45.

For the variant SNVD, the enrichment ratio was at most 0.25.

With EIPM, the enrichment ratio is at most 0.25.

On to QFLC, for which the enrichment ratio is at most 0.25.

As for WVGF, the enrichment ratio is at most 0.25.

Take HWDG: the enrichment ratio was at most 0.25.

For WEFD, the enrichment ratio was at most 0.25.

Turning to MYYS, the enrichment ratio was at most 0.25.

For the variant MAWE, the enrichment ratio was at most 0.25.

Take LVSA: the enrichment ratio was at most 0.25.

As to MTSR, the enrichment ratio was at most 0.25.

For MEKF, the enrichment ratio is at most 0.25.

In the case of VRVG, the enrichment ratio is at most 0.25.

On to HKVQ, for which the enrichment ratio is at most 0.25.

As for TVRY, the enrichment ratio was at most 0.25.

Turning to HEQK, the enrichment ratio is at most 0.25.

As for ALLI, the enrichment ratio amounted to 5.

For the variant VLHD, the enrichment ratio was at most 0.25.

Consider NCSY, for which the enrichment ratio is at most 0.25.

Consider SQNV, for which the enrichment ratio was at most 0.25.

As to FDYS, the enrichment ratio is at most 0.25.

QCRY: the enrichment ratio is at most 0.25.

On to PMAD, for which the enrichment ratio was at most 0.25.

Regarding SNCR, the enrichment ratio came out at 4.32.

Regarding QMYF, the enrichment ratio turned out to be 3.48.

In the case of AVVG, the enrichment ratio stood at 11.2.

Consider WCRI, for which the enrichment ratio was at most 0.25.

Take WVSG: the enrichment ratio is at most 0.25.

Turning to LYQF, the enrichment ratio was at most 0.25.

Consider FFCC, for which the enrichment ratio was at most 0.25.

As for NHIL, the enrichment ratio is at most 0.25.

For DMLS, the enrichment ratio was at most 0.25.

For AESF, the enrichment ratio was 14.8.

With SEHY, the enrichment ratio was at most 0.25.

SRYQ: the enrichment ratio is at most 0.25.

Take YRHT: the enrichment ratio is at most 0.25.

Consider RHTK, for which the enrichment ratio is at most 0.25.

For SNVK, the enrichment ratio was at most 0.25.

For the variant VSQD, the enrichment ratio is at most 0.25.

On to ICQM, for which the enrichment ratio was at most 0.25.

For DGDF, the enrichment ratio was at most 0.25.

As for LQRD, the enrichment ratio came out at 0.331.

As for VTQK, the enrichment ratio was at most 0.25.

In the case of RQQL, the enrichment ratio is at most 0.25.

Consider MESY, for which the enrichment ratio worked out at 14.8.

Regarding VLHI, the enrichment ratio is at most 0.25.

On to GCWF, for which the enrichment ratio is at most 0.25.

Turning to FRAN, the enrichment ratio was at most 0.25.

As to YGVI, the enrichment ratio is 1.95.

Regarding INWK, the enrichment ratio is at most 0.25.

Turning to QVGN, the enrichment ratio was at most 0.25.

With LHRY, the enrichment ratio is at most 0.25.

For FRHM, the enrichment ratio is at most 0.25.

AYVA: the enrichment ratio was at most 0.25.

SRFW: the enrichment ratio was at most 0.25.
